Our source for the self-cleavage values is the RNAGym collection of RNA variant scans (doi:10.7554/elife.90254).

The chains are these.
B1: LINE1-mini (parent)
chain: GGCAGAGCUCAACACAGCGUGGCAAAGUGGCUGUGGCUAGACUGCC

The source gives no read counts; variants with many changes may rest on few reads.

In the data set the parent is B1. Briefly: self-cleavage, relative activity (ratio to wild type); higher = more cleavage; in vitro, sequencing; the parent is a self-cleaving ribozyme.
As to GGCAGAGCUAAACUCAGCGUGGCAAAGUGGUUGUGGCUAGACUGCC [C10A A14U C31U], the self-cleavage stood at 0.02.

In the case of GGCGGAGCUCAACACAGCGUGGGAAAGGGGCUGUGGCUAGACUGCC [A4G C23G U28G], the self-cleavage was found to be 0.33.

For GGCAGAGCUCAACACAGCGUUCCAAAGUCGCUCUGGCUAGACUGCC [G21U G22C G29C G33C], the self-cleavage was 0.36.

For GGCAGAGCUGAACACAACGUGGCAAAGUCGCUGUGGCUAGAAUGCC [C10G G17A G29C C42A], the self-cleavage worked out at 0.01.

As for GGCAGAGCUCAACACAGCGUGGCAAAGUUGCUGUCGCCAGACUGCU [G29U G35C U38C C46U], the self-cleavage was 0.09.

For AGCAGAUCUCAACACAGCGUGGCUAAGUGGCUGUGGCUAGAUUGCU [G1A G7U A24U C42U C46U], the self-cleavage worked out at 0.04.

Take GGCAAAGCUCAACGCAGUGUGGCAAAGUGGCUGUGGCUAGACUGCC [G5A A14G C18U]: the self-cleavage came out at 0.05.

Take GGCAGAUCUGAACACAUCGUGUCAAAGUGGCUGUGGCUAGACUGCC [G7U C10G G17U G22U]: the self-cleavage stood at 0.03.

Take GGCAGAGCUCGUCACAGCGUGGCAAAGUGGCUGUGGUUAGACUGCC [A11G A12U C37U]: the self-cleavage is 0.01.

Consider GGCAGCACUCAACAAAGUGUCGCAAAGUGGCUGUGGCUAGACUGCC [A6C G7A C15A C18U G21C], for which the self-cleavage worked out at 0.06.

GGCAGACCUCGACACAGCGUGGCAAAGUGGCUGUCGCUAGACUGCC [G7C A11G G35C]: the self-cleavage was found to be 0.02.

As for GGCAGAGUUCAACACAGCGUGGCAAAGUGGCUUUGGCUAGCCUGCC [C8U G33U A41C], the self-cleavage is 0.12.

For GGCAGAGCUCAACACAGCGUGGCCAAGUGGCUGUGGCGAUACUGCC [A24C U38G G40U], the self-cleavage was 0.02.

Turning to GGCAGAGCUCAACACAAUGUGGAAAAGUGGCUGUGGCUAGAUUGAC [G17A C18U C23A C42U C45A], the self-cleavage was found to be 0.07.

For GGAAGAGAUCAACACAUCGUUGCAAAGUGGCUGUGGCUAGACUGCC [C3A C8A G17U G21U], the self-cleavage stood at 0.32.

For GGCAGUCCUCGACACAGCGUGGCAAAGUGGCUGUGGCUAGACUGCC [A6U G7C A11G], the self-cleavage came out at 0.04.

On to GUCAGAGCUCAAGACAGCGUGGCAAAGUGGAUGUGGCUAGACUGCC [G2U C13G C31A], for which the self-cleavage worked out at 0.01.

For the variant GGCAGAGCCCAACACAGCAUGGCAAAGUGGCUGUGGCUAGACUGAC [U9C G19A C45A], the self-cleavage amounted to 0.01.

For the variant GGCGGAGGUCAACACAACGAGGGAAAGUGGCUGUGGCUAGACUGCU [A4G C8G G17A U20A C23G C46U], the self-cleavage was determined as 0.01.

Take GGCAGAGCUCAAUACAGCGUGGCAAAGUGGCUGUAGCUAGGCUGCC [C13U G35A A41G]: the self-cleavage came out at 0.36.

Regarding GGCAGAGCUCAAGAAAGCAUGGCAAAGUGGCUAUGGCUAGACUGCC [C13G C15A G19A G33A], the self-cleavage amounted to 0.07.

On to GGCAGAGCUCAACACUGCGUGGCAACGUCGCUGUGGCUAGACUGCC [A16U A26C G29C], for which the self-cleavage came to 1.76.

In the case of AGCACAGCUCAACACAGCGUGGCAAAGUGGCUGUGGCUAGAGUGUC [G1A G5C C42G C45U], the self-cleavage was found to be 0.08.

GGCAGAGCUACACACAGCGUGACAAAGUGGCAGUGGCUAAACAGCC [C10A A11C G22A U32A G40A U43A]: the self-cleavage stood at 0.01.

With GGCGGAGCUCAACACAGCGAAUCAGAGUGGCUGUGGCUAGACUGCA [A4G U20A G21A G22U A25G C46A], the self-cleavage came to 0.74.

Regarding GGCAGAGCUCAAAACAGCAUGGCAAAGUCGCUGUAGCUAGACUGCC [C13A G19A G29C G35A], the self-cleavage was found to be 0.19.

With GGCAGAGCUCAACAUAGCGUGGCAAAGUGGCUGUUGCGAGACUGCC [C15U G35U U38G], the self-cleavage came to 0.05.

Regarding GGCAGAUCUCAACACGGCGUGGCAAAGUUGCUGUGGCUAGACUGCC [G7U A16G G29U], the self-cleavage worked out at 0.02.

For the variant GGCAGAGCUCAACACAGCGUGGCAAAGUGGCUGCGGUUAGACUGGG [U34C C37U C45G C46G], the self-cleavage was 0.08.

For AGCAGAGCUCAACACAGCGUGGCAUAGUGGCUGUGGCUACCCUGCC [G1A A25U G40C A41C], the self-cleavage came to 0.08.

In the case of UGCAUGGCUCAACACAGCGGGGCAAAGUGGCUGUGGAUAGACUGCC [G1U G5U A6G U20G C37A], the self-cleavage was determined as 0.05.

Consider GGCAGAGCUCAUCUCAGCGUGACAAAGUGGCUGUGGUUAGACUUCC [A12U A14U G22A C37U G44U], for which the self-cleavage came to 0.02.

For GGCAGAGCUCAACACAGAGUGGCAAAGUGGCUGUGGGUAGAGUGCC [C18A C37G C42G], the self-cleavage is 0.02.

As to GCCAGAGCUCAUCACAGCAUGGCAAAGUGGAUGUGGCUAGACUGCC [G2C A12U G19A C31A], the self-cleavage came to 0.04.

On to CGCAGAGCUCAACACAGCGUGCAAAAGUGGCUGUGGCUAGACUGCC [G1C G22C C23A], for which the self-cleavage is 0.05.

In the case of GGCUGAGUUCAACACAGCGCGGCAAAGUGGCUGUGGCUAGACUGCU [A4U C8U U20C C46U], the self-cleavage stood at 0.02.

Consider GGCACAGCUCAACACAGCGAGGAAAACUGGCUAUGGCUAGACUGCC [G5C U20A C23A G27C G33A], for which the self-cleavage came out at 0.02.

Take GGGAGAGCUGAACUCAGCGUGGCAAAGUGUCUGUGGCUAGACUGCC [C3G C10G A14U G30U]: the self-cleavage is 0.01.

Turning to GGCCGAGCUCAACACAGCGUGGCAAAGUAGCUGUGGCUACUCUGCC [A4C G29A G40C A41U], the self-cleavage came out at 0.02.

Regarding GGCAGAGCUCAAAACAGCGUGGCCAAGUGGCCGUGGCUACCCUGCC [C13A A24C U32C G40C A41C], the self-cleavage came out at 0.

For the variant GGCAGAGCUCAACACCGCGUGGCAAUGUGGCUGUUGCUAGAUUGCC [A16C A26U G35U C42U], the self-cleavage stood at 0.

For GGCUGAGCUCAACAAAGCGUGGCAAGGUGGCUGUGGCUUGACUGCC [A4U C15A A26G A39U], the self-cleavage was 0.04.

Consider GGGAGAGCUCAACACAGCGUGGCAAUGUGGCUGUUGCUAGACUGCC [C3G A26U G35U], for which the self-cleavage was found to be 0.16.

With UGCAGAGCUCAACACAGCGUGGCAAAGUGGUUGUGGCUAUACUGCC [G1U C31U G40U], the self-cleavage turned out to be 0.1.

Take GGCAGAGCUCAACACAGCGUCCCAAAGUGACUGUGGCUAGACUGCG [G21C G22C G30A C46G]: the self-cleavage is 0.09.

In the case of GGCAGAGCUCAACUCAGCGAGGCAUAGUGGCUGUGGCUAGACUGCC [A14U U20A A25U], the self-cleavage came to 0.03.

In the case of GGCAGAGCUCAACACAGCGUGGCAAAGUGACAGUGGCUAAACUGCC [G30A U32A G40A], the self-cleavage was found to be 0.31.

For GGCAGAGCUCAACACACCGUGGCAAGGUGGAUGUGGCUAAACUGCC [G17C A26G C31A G40A], the self-cleavage worked out at 0.02.

In the case of GGCAGAGCUCAACCCAGCGUGGCAAAGUGGCUGUGGUUAGAUUGCC [A14C C37U C42U], the self-cleavage turned out to be 0.18.

With GGCAUAGCUCAACCCAGCGUGGCAAGGUGGCUGUUGCUAGACUUAC [G5U A14C A26G G35U G44U C45A], the self-cleavage came to 0.01.

As for GGCAGAUAUCAACACUUCGUGGCAAAGUGGCUGUGGCUAGACUGCC [G7U C8A A16U G17U], the self-cleavage is 0.75.

Turning to AGCAGAGCUCAAUACAGCGUGGCAAAGUGGCUGUGGCUAGACUACC [G1A C13U G44A], the self-cleavage was 0.06.

Consider GGCUGAGCUCAACAUGGCGUGGCAAAGUAGCUGUGGCUAGACUGCC [A4U C15U A16G G29A], for which the self-cleavage stood at 0.01.

On to UGCAGAGCUCAACGCAGCGUGGCAAAGUGGCUGUGUCUAGACUGCC [G1U A14G G36U], for which the self-cleavage was found to be 0.07.

As to GGCAGAACUCAACACACCUUCGCAAAGUGGCUGUGGCUAGACUGCC [G7A G17C G19U G21C], the self-cleavage came to 0.24.

With GGCACAGCUCAACACUGCGUAGCCAAGUCGCUGUGGGUAGACUGCC [G5C A16U G21A A24C G29C C37G], the self-cleavage was 0.04.
